In all, about 310,000 compounds went through this assay and about 14,000 (4.5%) showed an effect of 50% or more. The effect is printed as a negative number. Some of the results follow.
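Note: peak tail current of the secondary pulse compared with the same well before compound.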

The target in the assay is human ether-à-go-go-related gene (hERG) potassium channel (human, UniProt Q12809). Briefly: primary screen, population patch clamp on CHO cells stably expressing hERG.
Sequence of human ether-à-go-go-related gene (hERG) potassium channel (Q12809 whole entry, looked up): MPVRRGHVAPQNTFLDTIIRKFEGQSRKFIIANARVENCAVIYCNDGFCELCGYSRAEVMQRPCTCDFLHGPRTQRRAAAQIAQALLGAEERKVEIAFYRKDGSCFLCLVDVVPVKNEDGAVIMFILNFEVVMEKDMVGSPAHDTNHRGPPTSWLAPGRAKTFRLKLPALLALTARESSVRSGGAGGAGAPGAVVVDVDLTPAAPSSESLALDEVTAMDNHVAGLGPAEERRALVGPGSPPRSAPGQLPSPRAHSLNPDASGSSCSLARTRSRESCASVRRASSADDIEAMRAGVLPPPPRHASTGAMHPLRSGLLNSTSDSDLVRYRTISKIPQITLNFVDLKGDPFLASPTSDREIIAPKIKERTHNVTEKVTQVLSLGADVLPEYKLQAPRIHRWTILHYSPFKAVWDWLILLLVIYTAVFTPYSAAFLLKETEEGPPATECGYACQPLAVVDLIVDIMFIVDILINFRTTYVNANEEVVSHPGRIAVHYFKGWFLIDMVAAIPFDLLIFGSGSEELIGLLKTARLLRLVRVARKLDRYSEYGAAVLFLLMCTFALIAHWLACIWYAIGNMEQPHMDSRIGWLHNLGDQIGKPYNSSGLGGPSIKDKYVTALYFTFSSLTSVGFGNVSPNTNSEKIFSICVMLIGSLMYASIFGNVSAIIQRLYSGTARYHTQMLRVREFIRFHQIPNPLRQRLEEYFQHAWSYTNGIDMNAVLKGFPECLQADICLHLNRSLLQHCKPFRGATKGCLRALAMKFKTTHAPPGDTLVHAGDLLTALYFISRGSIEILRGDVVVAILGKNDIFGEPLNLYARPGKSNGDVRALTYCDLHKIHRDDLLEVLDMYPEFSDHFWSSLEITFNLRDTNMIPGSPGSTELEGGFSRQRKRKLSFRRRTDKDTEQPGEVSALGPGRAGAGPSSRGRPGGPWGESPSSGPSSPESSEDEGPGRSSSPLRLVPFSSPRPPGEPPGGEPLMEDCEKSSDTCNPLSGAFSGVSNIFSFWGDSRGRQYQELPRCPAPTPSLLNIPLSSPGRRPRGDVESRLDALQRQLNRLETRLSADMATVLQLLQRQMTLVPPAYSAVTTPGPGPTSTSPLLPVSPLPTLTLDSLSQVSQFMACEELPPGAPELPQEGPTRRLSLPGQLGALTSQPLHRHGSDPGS
Turning to `C/C(=N/NS(=O)(=O)c1ccc(Cl)cc1)c1cccc(O)c1`, the “hERG current change (%, negative = inhibition) at 10uM” value is on record as -2.62%.

As for `CC(=NCC1CCCO1)c1c(O)n(-c2ccccc2C)c(=O)[nH]c1=O` (stereo not shown), the “hERG current change (%, negative = inhibition) at 10uM” value is recorded as -6.51%.

With `Clc1cc(Cl)c(OCc2nc(-c3ccccn3)no2)cc1Cl`, the “hERG current change (%, negative = inhibition) at 10uM” value was -1.18%.

Consider `CCCCn1c(/C=C/c2ccco2)nc2ccccc21`, for which the “hERG current change (%, negative = inhibition) at 10uM” value is -17.2%.

On to `CC(=O)NN1C(=O)/C(=C2/Sc3ccc(Cl)cc3N2C)SC1=S`, for which the “hERG current change (%, negative = inhibition) at 10uM” value was found to be 10.6%.

With `CCc1ccc(S(=O)(=O)c2nnn3c2nc(NCCNC(C)=O)c2ccccc23)cc1`, the “hERG current change (%, negative = inhibition) at 10uM” value turned out to be 8.28%.

Turning to `CCCCCOc1ccc(C(=O)CCN2CCOCC2)cc1.Cl`, the “hERG current change (%, negative = inhibition) at 10uM” value is on record as -2.54%.

Turning to `Cc1ccc(OCCNC(=O)Cc2ccc(S(=O)(=O)N3CCOCC3)s2)cc1`, the “hERG current change (%, negative = inhibition) at 10uM” value is reported as -24%.

Take `Cc1ccc(/C=N/NC(=O)c2ccco2)s1`: the “hERG current change (%, negative = inhibition) at 10uM” value is reported as -2.98%.

As for `COC(=O)C1CCN(C(=O)[C@H](C)NC(=O)C2CC(=O)N(c3ccc(F)cc3)C2)CC1` (stereo partly shown), the “hERG current change (%, negative = inhibition) at 10uM” value is on record as 10.7%.

Turning to `COC(=O)/C=C1\N/C(=N\c2nc(C)cc(C)n2)N(c2ccccc2)C1=O`, the “hERG current change (%, negative = inhibition) at 10uM” value is 15.6%.

As to `O=C(O)c1cc2ccccc2c(N=Nc2cccnc2)c1O`, the “hERG current change (%, negative = inhibition) at 10uM” value was 6.49%.

With `C1COCCO1.N#C/C(=C(/O)C(Cl)c1ccccc1)c1nc2ccccc2s1` (stereo not shown), the “hERG current change (%, negative = inhibition) at 10uM” value is -0.386%.

For the compound `CCN(CCCNS(=O)(=O)c1cc(-c2cc(C)no2)ccc1C)Cc1ccccc1`, the “hERG current change (%, negative = inhibition) at 10uM” value is recorded as -61.3%.

Consider `CN(CC(=O)Nc1ccc(F)cc1)C(=O)COC(=O)C1=COCCO1`, for which the “hERG current change (%, negative = inhibition) at 10uM” value was -20%.

Take `CC1(C)Cc2nc3oc4c(N5CCOCC5)ncnc4c3cc2CO1`: the “hERG current change (%, negative = inhibition) at 10uM” value is given as -9.23%.

For `Cc1ccc(-n2c(SCC(=O)Nc3ccc(N4CCOCC4)cc3)nc3ccccc3c2=O)cc1`, the “hERG current change (%, negative = inhibition) at 10uM” value is recorded as 6.08%.

As for `COc1ccc(/C=N/Nc2snc(SC)c2C#N)cc1OC`, the “hERG current change (%, negative = inhibition) at 10uM” value is on record as -2.63%.

For `O=C(CCCOc1ccc(Cl)cc1)NCCc1ccccc1`, the “hERG current change (%, negative = inhibition) at 10uM” value is listed as 5.77%.

As to `COc1ccc2c(c1)CC/C(=C\C=C\c1ccccc1OC)C2=O`, the “hERG current change (%, negative = inhibition) at 10uM” value was 8.8%.

As for `CNC(=O)c1ccc(CNC(=O)OCc2ccccc2)cc1`, the “hERG current change (%, negative = inhibition) at 10uM” value is 21.4%.

Take `CC1CCCC(C)N1CC(O)COC1CCC(C(C)(C)C)CC1.Cl` (stereo not shown): the “hERG current change (%, negative = inhibition) at 10uM” value is reported as -14.8%.

Take `O=C(NCc1ccco1)/C(=C/c1ccccc1F)NC(=O)c1ccccc1`: the “hERG current change (%, negative = inhibition) at 10uM” value was 17.3%.

For the compound `CCOC(=O)c1ccc(NC(=O)CSc2nc(N3CCOCC3)nc(N3CCOCC3)n2)cc1`, the “hERG current change (%, negative = inhibition) at 10uM” value is on record as 11.1%.

Consider `CC(=O)c1cccc(S(=O)(=O)NC2CC2)c1`, for which the “hERG current change (%, negative = inhibition) at 10uM” value turned out to be 0.903%.

On to `CCN(CC)S(=O)(=O)c1ccc(NC(=O)COC(=O)c2ccc(Br)o2)cc1`, for which the “hERG current change (%, negative = inhibition) at 10uM” value is given as -24.4%.

As for `CNC(=O)c1ncnnc1N(C)C(=O)NCc1ccccc1`, the “hERG current change (%, negative = inhibition) at 10uM” value is on record as -0.0696%.

`COCCCn1c(=O)/c(=C\c2ccccc2OC(C)C)s/c1=C(/C#N)C(=O)Nc1ccc(C(=O)O)cc1`: the “hERG current change (%, negative = inhibition) at 10uM” value is reported as 4.48%.

In the case of `c1ccc(-c2csc3ncnc(NCC4COc5ccccc5O4)c23)cc1` (stereo not shown), the “hERG current change (%, negative = inhibition) at 10uM” value worked out at 6.54%.

`CCCCn1c(N)c(N(CC(C)C)C(=O)C2CC(=O)N(c3ccc(CC)cc3)C2)c(=O)[nH]c1=O` (stereo not shown): the “hERG current change (%, negative = inhibition) at 10uM” value is 18.8%.

For `Cn1c(=O)c(C#N)c(-c2ccc(F)cc2)c2cc(C(=O)c3cc(Cl)cc(Cl)c3O)cnc21`, the “hERG current change (%, negative = inhibition) at 10uM” value is 56.6%.

Consider `Cc1cccc(OCC(=O)Nc2ccc(CN3CCOCC3)cc2)c1C`, for which the “hERG current change (%, negative = inhibition) at 10uM” value is listed as -8.28%.

With `Cc1ccc2nc(NC(=O)Cn3cc4c(n3)CCCCC4)sc2c1`, the “hERG current change (%, negative = inhibition) at 10uM” value is on record as -26.2%.

As for `O=C(Nc1ccc(S(=O)(=O)NCc2ccco2)cc1)C1CCCCC1`, the “hERG current change (%, negative = inhibition) at 10uM” value is 12.3%.

Turning to `CCOC(=O)/C=c1\s/c(=C\c2ccc3c(c2)OCCO3)c(=O)n1CC(=O)NCC1CCCO1` (stereo not shown), the “hERG current change (%, negative = inhibition) at 10uM” value worked out at 19.5%.

Regarding `CC1CCN(CC(=O)N2CCN(c3ccccc3)CC2)CC1`, the “hERG current change (%, negative = inhibition) at 10uM” value was -4.24%.

For `O=c1c2ccccc2nc(-c2ccco2)n1CCc1ccc(O)cc1`, the “hERG current change (%, negative = inhibition) at 10uM” value was found to be 7.91%.

For `Cc1ccc(-c2[nH]c(-c3ccc(Cl)cc3)nc2SCC(=O)NCC2CCCO2)cc1` (stereo not shown), the “hERG current change (%, negative = inhibition) at 10uM” value turned out to be 9.82%.

Consider `Cc1ccccc1NC(=O)CSc1nc2scc(C)c2c(=O)[nH]1`, for which the “hERG current change (%, negative = inhibition) at 10uM” value amounted to 15.3%.

With `CC(C)(C)n1ncc2c(=O)n(CC(=O)c3ccc(Cl)cc3)cnc21`, the “hERG current change (%, negative = inhibition) at 10uM” value was 7.58%.

Take `COc1ccc(F)cc1CN1CCN(C(=O)CCC(=O)Nc2nnc(CC(C)C)s2)CC1`: the “hERG current change (%, negative = inhibition) at 10uM” value is reported as -11.5%.

As to `COC(=O)c1cc(NC(=O)CC2CCCC2)cc(C(=O)OC)c1`, the “hERG current change (%, negative = inhibition) at 10uM” value came out at 1.79%.

On to `CCC1Oc2ccc(C)cc2N(CC(=O)N2CCN(c3ccc(F)cc3)CC2)C1=O` (stereo not shown), for which the “hERG current change (%, negative = inhibition) at 10uM” value was -54.1%.
